# Reference: the supplement of paper PMC8728848
# This is one part of the list.
# B1: Si Bti9 1b-HA (Solanum lycopersicum) (protein)
# chain: MFESRPRSVLSLGVFVILVYLSSVPLPVNSQCNRGCDLALASFYVWRGSNLTLISEMFSTSIADIVSYNNRDNIPNQDSVIAGTRINIPFRCDCLNDGEVLGHAFPYRVKSGDTYDLVARNYSDLTTAQWMMKFNSYPENNIPNTVNLSVVVNCSCGNSDVSKDFGLFVTYPVRAEDNLTSVASAANVSEDIIRRYNPAAVSILDIGQGIIYIPGRDRNGNFPPLPTSTDGLSGGAKAPLFFNPAFLYKVVELKLAGRSRTSGYPYDVPDYAGYPYDVPDYALEVLFQ
# How the values were obtained:
# Assay in all cases: glycan array binding signal (z-score within array); higher = stronger binding
# Settings in all cases: glycan notation: IUPAC condensed, linker removed
# [1] = target: Gal(b1-4)GlcNAc(b1-3)Gal(b1-4)GlcNAc(b1-2)[Gal(b1-4)GlcNAc(b1-3)Gal(b1-4)GlcNAc(b1-6)]Man(a1-6)[Gal(b1-4)GlcNAc(b1-3)Gal(b1-4)GlcNAc(b1-2)Man(a1-3)]Man(b1-4)GlcNAc(b1-4)GlcNAc
# Procedure, shortened: (§1)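 From the Consortium for Functional Glycomics database, 3228 arrays were curated, keeping only those whose protein sequence was available. Binding is given as a within-array Z-score averaged across arrays sharing a protein sequence and across linkers. Negative Z-scores can be read as non-binding.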
# [2] = target: Gal(b1-4)GlcNAc(b1-3)Gal(b1-4)GlcNAc(b1-2)[Gal(b1-4)GlcNAc(b1-3)Gal(b1-4)GlcNAc(b1-6)]Man(a1-6)[Gal(b1-4)GlcNAc(b1-3)Gal(b1-4)GlcNAc(b1-2)Man(a1-3)]Man(b1-4)GlcNAc(b1-4)[Fuc(a1-6)]GlcNAc
# Procedure, shortened: as §1
# [3] = target: Gal(b1-4)GlcNAc(b1-3)Gal(b1-4)GlcNAc(b1-3)Gal(b1-4)GlcNAc
# Procedure, shortened: as §1
# [4] = target: Gal(b1-4)GlcNAc(b1-3)Gal(b1-4)GlcNAc(b1-3)Gal(b1-4)GlcNAc(b1-2)Man(a1-3)[Gal(b1-4)GlcNAc(b1-3)Gal(b1-4)GlcNAc(b1-3)Gal(b1-4)GlcNAc(b1-2)Man(a1-6)]Man(b1-4)GlcNAc(b1-4)GlcNAc
# Procedure, shortened: as §1
# [5] = target: Gal(b1-4)GlcNAc(b1-3)Gal(b1-4)GlcNAc(b1-3)Gal(b1-4)GlcNAc(b1-2)Man(a1-3)[Gal(b1-4)GlcNAc(b1-3)Gal(b1-4)GlcNAc(b1-3)Gal(b1-4)GlcNAc(b1-2)Man(a1-6)]Man(b1-4)GlcNAc(b1-4)[Fuc(a1-6)]GlcNAc
# Procedure, shortened: as §1
# [6] = target: Gal(b1-4)GlcNAc(b1-3)Gal(b1-4)GlcNAc(b1-3)Gal(b1-4)GlcNAc(b1-2)[Gal(b1-4)GlcNAc(b1-3)Gal(b1-4)GlcNAc(b1-3)Gal(b1-4)GlcNAc(b1-6)]Man(a1-6)[Gal(b1-4)GlcNAc(b1-3)Gal(b1-4)GlcNAc(b1-3)Gal(b1-4)GlcNAc(b1-2)Man(a1-3)]Man(b1-4)GlcNAc(b1-4)[Fuc(a1-6)]GlcNAc
# Procedure, shortened: as §1
# [7] = target: Gal(b1-4)GlcNAc(b1-3)Gal(b1-4)GlcNAc(b1-3)Gal(b1-4)GlcNAc(b1-3)Gal(b1-4)GlcNAc(b1-2)Man(a1-3)[Gal(b1-4)GlcNAc(b1-3)Gal(b1-4)GlcNAc(b1-3)Gal(b1-4)GlcNAc(b1-3)Gal(b1-4)GlcNAc(b1-2)Man(a1-6)]Man(b1-4)GlcNAc(b1-4)GlcNAc
# Procedure, shortened: as §1
# [8] = target: Gal(b1-4)GlcNAc(b1-3)Gal(b1-4)GlcNAc(b1-3)Gal(b1-4)GlcNAc(b1-3)Gal(b1-4)GlcNAc(b1-2)Man(a1-3)[Gal(b1-4)GlcNAc(b1-3)Gal(b1-4)GlcNAc(b1-3)Gal(b1-4)GlcNAc(b1-3)Gal(b1-4)GlcNAc(b1-2)Man(a1-6)]Man(b1-4)GlcNAc(b1-4)[Fuc(a1-6)]GlcNAc
# Procedure, shortened: as §1
# [9] = target: Gal(b1-4)GlcNAc(b1-3)Gal(b1-4)GlcNAc(b1-3)Gal(b1-4)GlcNAc(b1-3)Gal(b1-4)GlcNAc(b1-2)[Gal(b1-4)GlcNAc(b1-3)Gal(b1-4)GlcNAc(b1-3)Gal(b1-4)GlcNAc(b1-3)Gal(b1-4)GlcNAc(b1-6)]Man(a1-6)[Gal(b1-4)GlcNAc(b1-3)Gal(b1-4)GlcNAc(b1-3)Gal(b1-4)GlcNAc(b1-3)Gal(b1-4)GlcNAc(b1-2)Man(a1-3)]Man(b1-4)GlcNAc(b1-4)[Fuc(a1-6)]GlcNAc
# Procedure, shortened: as §1
# [10] = target: Gal(b1-4)GlcNAc(b1-3)Gal(b1-4)GlcNAc(b1-3)Gal(b1-4)GlcNAc(b1-3)Gal(b1-4)GlcNAc(b1-3)Gal(b1-4)GlcNAc(b1-2)Man(a1-3)[Gal(b1-4)GlcNAc(b1-3)Gal(b1-4)GlcNAc(b1-3)Gal(b1-4)GlcNAc(b1-3)Gal(b1-4)GlcNAc(b1-3)Gal(b1-4)GlcNAc(b1-2)Man(a1-6)]Man(b1-4)GlcNAc(b1-4)GlcNAc
# Procedure, shortened: as §1
# [11] = target: Gal(b1-4)GlcNAc(b1-3)Gal(b1-4)GlcNAc(b1-3)Gal(b1-4)GlcNAc(b1-3)Gal(b1-4)GlcNAc(b1-3)Gal(b1-4)GlcNAc(b1-2)Man(a1-3)[Gal(b1-4)GlcNAc(b1-3)Gal(b1-4)GlcNAc(b1-3)Gal(b1-4)GlcNAc(b1-3)Gal(b1-4)GlcNAc(b1-3)Gal(b1-4)GlcNAc(b1-2)Man(a1-6)]Man(b1-4)GlcNAc(b1-4)[Fuc(a1-6)]GlcNAc
# Procedure, shortened: as §1
# [12] = target: Gal(b1-4)GlcNAc(b1-3)Gal(b1-4)GlcNAc(b1-3)Gal(b1-4)GlcNAc(b1-3)Gal(b1-4)GlcNAc(b1-3)Gal(b1-4)GlcNAc(b1-2)[Gal(b1-4)GlcNAc(b1-3)Gal(b1-4)GlcNAc(b1-3)Gal(b1-4)GlcNAc(b1-3)Gal(b1-4)GlcNAc(b1-3)Gal(b1-4)GlcNAc(b1-6)]Man(a1-6)[Gal(b1-4)GlcNAc(b1-3)Gal(b1-4)GlcNAc(b1-3)Gal(b1-4)GlcNAc(b1-3)Gal(b1-4)GlcNAc(b1-3)Gal(b1-4)GlcNAc(b1-2)Man(a1-3)]Man(b1-4)GlcNAc(b1-4)[Fuc(a1-6)]GlcNAc
# Procedure, shortened: as §1
# [13] = target: Gal(b1-4)GlcNAc(b1-3)Gal(b1-4)GlcNAc(b1-3)Gal(b1-4)GlcNAc(b1-3)Gal(b1-4)GlcNAc(b1-3)Gal(b1-4)GlcNAc(b1-3)Gal(b1-4)GlcNAc(b1-2)Man(a1-3)[Gal(b1-4)GlcNAc(b1-3)Gal(b1-4)GlcNAc(b1-3)Gal(b1-4)GlcNAc(b1-3)Gal(b1-4)GlcNAc(b1-3)Gal(b1-4)GlcNAc(b1-3)Gal(b1-4)GlcNAc(b1-2)Man(a1-6)]Man(b1-4)GlcNAc(b1-4)GlcNAc
# Procedure, shortened: as §1
# [14] = target: Gal(b1-4)GlcNAc(b1-3)Gal(b1-4)GlcNAc(b1-3)GalNAc
# Procedure, shortened: as §1
# [15] = target: Gal(b1-4)GlcNAc(b1-3)Gal(b1-4)GlcNAc(b1-3)[Gal(b1-4)GlcNAc(b1-3)Gal(b1-4)GlcNAc(b1-6)]GalNAc
# Procedure, shortened: as §1
# [16] = target: Gal(b1-4)GlcNAc(b1-3)Gal(b1-4)GlcNAc(b1-6)[Gal(b1-3)]GalNAc
# Procedure, shortened: as §1
# [17] = target: Gal(b1-4)GlcNAc(b1-3)Gal(b1-4)[Fuc(a1-3)]GlcNAc(b1-3)Gal(b1-4)[Fuc(a1-3)]GlcNAc
# Procedure, shortened: as §1
# [18] = target: Gal(b1-4)GlcNAc(b1-3)GalNAc
# Procedure, shortened: as §1
# [19] = target: Gal(b1-4)GlcNAc(b1-3)[Fuc(a1-3)GlcNAc(b1-6)]Gal(b1-4)Glc
# Procedure, shortened: as §1
# [20] = target: Gal(b1-4)GlcNAc(b1-3)[Gal(b1-4)GlcNAc(b1-6)]Gal(b1-4)GlcNAc
# Procedure, shortened: as §1
# [21] = target: Gal(b1-4)GlcNAc(b1-3)[GlcNAc(b1-6)]Gal(b1-4)GlcNAc
# Procedure, shortened: as §1
# [22] = target: Gal(b1-4)GlcNAc(b1-6)Gal(b1-4)GlcNAc
# Procedure, shortened: as §1
# [23] = target: Gal(b1-4)GlcNAc(b1-6)GalNAc
# Procedure, shortened: as §1
# [24] = target: Gal(b1-4)GlcNAc(b1-6)[Gal(b1-3)]GalNAc
# Procedure, shortened: as §1
# [25] = target: Gal(b1-4)GlcNAc(b1-6)[Gal(b1-4)GlcNAc(b1-3)]GalNAc
# Procedure, shortened: as §1
# Gal(b1-4)GlcNAc6P = target: Gal(b1-4)GlcNAc6P
# Procedure, shortened: as §1
# Gal(b1-6)Gal = target: Gal(b1-6)Gal
# Procedure, shortened: as §1
# Gal3S(b1-3)GalNAc = target: Gal3S(b1-3)GalNAc
# Procedure, shortened: as §1
# Gal3S(b1-3)GlcNAc = target: Gal3S(b1-3)GlcNAc
# Procedure, shortened: as §1
# [26] = target: Gal3S(b1-3)[Fuc(a1-4)]GlcNAc
# Procedure, shortened: as §1
# Gal3S(b1-4)Glc = target: Gal3S(b1-4)Glc
# Procedure, shortened: as §1
# Gal3S(b1-4)Glc6S = target: Gal3S(b1-4)Glc6S
# Procedure, shortened: as §1
# Gal3S(b1-4)GlcNAc = target: Gal3S(b1-4)GlcNAc
# Procedure, shortened: as §1
# [27] = target: Gal3S(b1-4)[Fuc(a1-3)]Glc6S
# Procedure, shortened: as §1
# [28] = target: Gal3S(b1-4)[Fuc(a1-3)]GlcNAc
# Procedure, shortened: as §1
# [29] = target: Gal3S(b1-4)[Fuc(a1-3)]GlcNAc6S
# Procedure, shortened: as §1
# Gal3S4S(b1-4)GlcNAc = target: Gal3S4S(b1-4)GlcNAc
# Procedure, shortened: as §1
# Gal3S6S(b1-4)GlcNAc = target: Gal3S6S(b1-4)GlcNAc
# Procedure, shortened: as §1
# Gal3S6S(b1-4)GlcNAc6S = target: Gal3S6S(b1-4)GlcNAc6S
# Procedure, shortened: as §1
# Gal4S(b1-4)GlcNAc = target: Gal4S(b1-4)GlcNAc
# Procedure, shortened: as §1
# Gal4S6S(b1-4)GlcNAc = target: Gal4S6S(b1-4)GlcNAc
# Procedure, shortened: as §1
# Gal6P(b1-4)GlcNAc = target: Gal6P(b1-4)GlcNAc
# Procedure, shortened: as §1
# Gal6S(b1-3)GlcNAc = target: Gal6S(b1-3)GlcNAc
# Procedure, shortened: as §1
# Gal6S(b1-3)GlcNAc6S = target: Gal6S(b1-3)GlcNAc6S
# Procedure, shortened: as §1
# Gal6S(b1-4)Glc = target: Gal6S(b1-4)Glc
# Procedure, shortened: as §1
binder,measurement,setting,value
B1,glycan array binding signal (z-score),[1],2.69
same,glycan array binding signal (z-score),[2],-0.1
same,glycan array binding signal (z-score),[3],-0.222
same,glycan array binding signal (z-score),[4],1.66
same,glycan array binding signal (z-score),[5],0.042
same,glycan array binding signal (z-score),[6],0.132
same,glycan array binding signal (z-score),[7],0.03
same,glycan array binding signal (z-score),[8],0.285
same,glycan array binding signal (z-score),[9],0.268
same,glycan array binding signal (z-score),[10],0.163
same,glycan array binding signal (z-score),[11],-0.115
same,glycan array binding signal (z-score),[12],0.031
same,glycan array binding signal (z-score),[13],-0.028
same,glycan array binding signal (z-score),[14],0.063
same,glycan array binding signal (z-score),[15],0.787
same,glycan array binding signal (z-score),[16],0.615
same,glycan array binding signal (z-score),[17],-0.375
same,glycan array binding signal (z-score),[18],-0.453
same,glycan array binding signal (z-score),[19],-0.397
same,glycan array binding signal (z-score),[20],-0.451
same,glycan array binding signal (z-score),[21],-0.382
same,glycan array binding signal (z-score),[22],-0.126
same,glycan array binding signal (z-score),[23],0.137
same,glycan array binding signal (z-score),[24],-0.301
same,glycan array binding signal (z-score),[25],-0.273
same,glycan array binding signal (z-score),Gal(b1-4)GlcNAc6P,-0.072
same,glycan array binding signal (z-score),Gal(b1-6)Gal,0.567
same,glycan array binding signal (z-score),Gal3S(b1-3)GalNAc,-0.275
same,glycan array binding signal (z-score),Gal3S(b1-3)GlcNAc,-0.447
same,glycan array binding signal (z-score),[26],-0.237
same,glycan array binding signal (z-score),Gal3S(b1-4)Glc,2.57
same,glycan array binding signal (z-score),Gal3S(b1-4)Glc6S,1.4
same,glycan array binding signal (z-score),Gal3S(b1-4)GlcNAc,-0.032
same,glycan array binding signal (z-score),[27],-0.11
same,glycan array binding signal (z-score),[28],-0.169
same,glycan array binding signal (z-score),[29],1.12
same,glycan array binding signal (z-score),Gal3S4S(b1-4)GlcNAc,-0.107
same,glycan array binding signal (z-score),Gal3S6S(b1-4)GlcNAc,-0.308
same,glycan array binding signal (z-score),Gal3S6S(b1-4)GlcNAc6S,-0.206
same,glycan array binding signal (z-score),Gal4S(b1-4)GlcNAc,-0.358
same,glycan array binding signal (z-score),Gal4S6S(b1-4)GlcNAc,-0.541
same,glycan array binding signal (z-score),Gal6P(b1-4)GlcNAc,1.29
same,glycan array binding signal (z-score),Gal6S(b1-3)GlcNAc,-0.431
same,glycan array binding signal (z-score),Gal6S(b1-3)GlcNAc6S,-0.215
same,glycan array binding signal (z-score),Gal6S(b1-4)Glc,-0.456
